Source: paper PMC4336329 (PLoS ONE, 2015)
About 2,200 (0.71%) of roughly 310,000 compounds showed an effect of 50% or more. Effects have a minus sign here. The list shows a part of the results.

Biological target: human ether-à-go-go-related gene (hERG) potassium channel (human, UniProt Q12809)
Assay: primary screen, population patch clamp on CHO cells stably expressing hERG

Chain of human ether-à-go-go-related gene (hERG) potassium channel (Q12809 whole entry, looked up): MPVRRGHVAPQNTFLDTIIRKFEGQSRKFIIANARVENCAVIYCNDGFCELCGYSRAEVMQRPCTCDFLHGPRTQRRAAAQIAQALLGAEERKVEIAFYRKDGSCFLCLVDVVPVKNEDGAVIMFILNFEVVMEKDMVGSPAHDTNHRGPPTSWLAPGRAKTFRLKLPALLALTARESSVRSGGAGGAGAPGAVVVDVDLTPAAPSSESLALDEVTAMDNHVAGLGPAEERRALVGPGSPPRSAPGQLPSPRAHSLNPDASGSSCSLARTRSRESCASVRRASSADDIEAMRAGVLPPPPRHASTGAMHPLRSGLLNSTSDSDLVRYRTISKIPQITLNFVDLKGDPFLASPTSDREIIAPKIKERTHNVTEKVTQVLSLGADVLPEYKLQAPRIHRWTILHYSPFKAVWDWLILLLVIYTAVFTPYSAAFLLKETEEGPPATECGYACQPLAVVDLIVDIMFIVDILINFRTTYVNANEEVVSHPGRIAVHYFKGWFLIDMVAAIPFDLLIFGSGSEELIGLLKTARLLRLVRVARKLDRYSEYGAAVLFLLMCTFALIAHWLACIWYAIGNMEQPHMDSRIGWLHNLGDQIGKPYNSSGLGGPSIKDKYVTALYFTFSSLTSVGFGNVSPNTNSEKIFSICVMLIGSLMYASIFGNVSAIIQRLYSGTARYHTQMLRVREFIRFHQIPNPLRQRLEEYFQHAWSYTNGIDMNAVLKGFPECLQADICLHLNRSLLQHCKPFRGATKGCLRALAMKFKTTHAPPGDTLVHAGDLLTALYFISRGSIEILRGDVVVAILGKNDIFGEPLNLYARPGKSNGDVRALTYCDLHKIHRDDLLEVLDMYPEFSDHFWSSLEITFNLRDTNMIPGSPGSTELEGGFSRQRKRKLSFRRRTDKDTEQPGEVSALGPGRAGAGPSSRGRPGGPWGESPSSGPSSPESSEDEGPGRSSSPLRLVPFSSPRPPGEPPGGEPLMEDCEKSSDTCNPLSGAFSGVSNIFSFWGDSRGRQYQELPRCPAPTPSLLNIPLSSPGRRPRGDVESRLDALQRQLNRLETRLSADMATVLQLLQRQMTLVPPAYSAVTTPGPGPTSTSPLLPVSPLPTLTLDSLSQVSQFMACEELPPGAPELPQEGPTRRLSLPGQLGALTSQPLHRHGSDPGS

Compound | hERG current change (%, negative = inhibition) at 1uM
Cc1ccc(S(=O)(=O)Nc2c(NC3CCCCC3)c3ccccc3oc2=O)cc1 | 11.6%
Cc1cc(Cl)ccc1OC(C)C(=O)O (centres unmarked) | 10.5%
CN(C)c1nc(SCCOC(=O)COc2ccc(Cl)cc2Cl)nc(N(C)C)n1 | -6.1%
O=C(CCc1ccccc1)NC1CCCc2ccccc21 (centres unmarked) | 10.4%
COC(=O)c1c(NC(=O)CC2Nc3ccccc3NC2=O)sc(C)c1C (centres unmarked) | 7.43%
CCN(CC)CCN(Cc1cc2cc3c(cc2[nH]c1=O)OCO3)C(=S)NCCOC | 11.1%
Cc1ccc(S(=O)(=O)N2CCOCC2)c(C)c1NS(C)(=O)=O | 13.3%
COc1cc(/C(C)=N/NC(=O)CN2CCN(S(=O)(=O)c3ccc(C)cc3)CC2)ccc1O | 6.69%
S=c1[nH]nc(C2CCCCC2)n1/N=C/c1cccc(Br)c1 | 6.52%
CCOc1ccc(C2C(C#N)=C(C)NC3=C2C(=O)c2ccccc23)cc1 (centres unmarked) | -2.53%
Cc1sc2nc(C3CC3)nc(SCC(=O)N3CCc4ccccc4C3)c2c1C | 11.7%
COc1ccc(C(=O)COC(=O)COc2ccc(C)c(C)c2)cc1 | 17.4%
Fc1cccc(Cc2noc(CN3CCCCC3c3ccccn3)n2)c1 (centres unmarked) | 4.78%
COCCn1nnnc1CN(CCc1ccc(OC)c(OC)c1)Cc1cc2ccc(C)cc2[nH]c1=O | -12%
Cc1cccc(C(=O)N2CCC(=O)N(C(COCc3ccc(Cl)cc3)Cc3ccccc3)CC2)c1 (centres unmarked) | 7.32%
CCOC(=O)C(NCc1ccccc1)(NC(=O)c1ccccc1)C(F)(F)F (centres unmarked) | 12.5%
Cc1noc(/C=C/c2nn(C)cc2Cl)c1[N+](=O)[O-] | 15.9%
O=C(NC(=S)Nc1ccccc1O)c1cncc(Br)c1 | 22.5%
Nc1nonc1C(=Nc1ccccc1)NO | 12.9%

Compound | hERG current change (%, negative = inhibition) at 1uM
COc1ccccc1-c1nc(-c2ccc(Br)cc2)no1 | 11.3%
Cc1nn(-c2ccccc2)c(C)c1C(=O)Oc1ccccc1 | 9.28%
COc1ccc(/C=C2\SC(=S)N(CCC(=O)Nc3cccc(C(=O)O)c3)C2=O)cc1 | 14.9%
CC(=O)NC1C(=O)N(C)c2ccc(Br)cc21 (centres unmarked) | 2%
COc1ccc(CC(=O)Nc2ccc(-c3nnc(-c4ccc(C)cc4)o3)cc2)cc1 | 15.3%
COc1cc(-c2[nH]ncc2CN2CCN(Cc3cccs3)CC2)cc(OC)c1OC | 0.976%
O=C(O)c1ccc(NS(=O)(=O)c2ccc3c(c2)C(=O)c2ccccc2C3=O)cc1 | 13.6%
CC(C)(C)c1ccccc1NC(=O)Cn1c(=O)cnc2ccccc21 | -0.714%
O=C(O)c1cccc2c1C(=O)c1ccc(Cl)cc1S2(=O)=O | 15.6%
CCCn1c(N)c(C(=O)CSc2nncs2)c(=O)[nH]c1=O | 6.62%
Cc1cc(NC(=O)c2ccc(S(=O)(=O)Nc3ccccc3)cc2)no1 | 10.8%
Cc1ccc(-n2nnnc2SCC(=O)Nc2ccccc2-c2ccccc2)cc1C | 2.73%
CC(Oc1ccc2ccc(=O)oc2c1)C(=O)N1CCOCC1 (centres unmarked) | 9.75%
Cn1nc(-c2ccc(Cl)cc2)c2cc(C(=O)N3CCN(c4ccccn4)CC3)sc21 | 13%
Cc1cc(C)cc(Oc2ncnc3c2ncn3Cc2c(Cl)cccc2Cl)c1 | -4.86%
COCCn1c(C)cc(C(=O)COC(=O)C2CC(=O)N(CCc3ccc(OC)c(OC)c3)C2)c1C (centres unmarked) | 4.75%
COc1ccc(N2CCN(CC(O)COc3ccc4c(c3)CCC4)CC2)cc1.Cl (centres unmarked) | -17.6%
CC(=O)Oc1ccc(-c2cccc(C(=O)OCC(=O)N(C)c3ccccc3)c2)cc1 | -0.992%
O=S(=O)(NC1CCCCC1Nc1ccccc1)c1ccccc1 (centres unmarked) | 1.52%

Compound | hERG current change (%, negative = inhibition) at 1uM
O=C1CN(C(=O)c2ccccc2)c2ccccc2N1 | 3.57%
CC(C)C[C@H](NC(=O)OC(C)(C)C)C(=O)N1CCC(C(=O)N[C@@H](Cc2c[nH]c3ccccc23)C(=O)O)CC1 | 11.2%
Cc1ccc2nc(-c3ccccc3)c(CN3CCN(c4ccccc4F)CC3)n2c1 | 16.1%
CCCCCCCCCCCCCCCC[n+]1cccc(C(=O)N(CC)CC)c1.[Br-] | 4.44%
[Br-].c1ccc(-c2c[n+]3c(n2-c2ccccc2)CCC3)cc1 | 6.4%
O=C(CSc1ccc2nnc(-c3cccnc3)n2n1)Nc1cccc(F)c1 | -9.62%
Cc1cc(C)nc(/N=C(\N)Nc2ccc([N+](=O)[O-])cc2)n1 | -3.99%
COc1ccc(-c2nc(CS(=O)(=O)CC(=O)NCc3ccc(F)cc3)c(C)o2)cc1 | 14.1%
Cc1cccc(C)c1Nc1nnc(SCC(=O)NC2CCS(=O)(=O)C2)s1 (centres unmarked) | -0.271%
Cc1ccc(S(=O)(=O)Nc2ccc(Oc3cccnc3)nc2)cc1 | 14.5%
CCOc1ccc2[nH]c3c(NCCN(CC)CC)ncnc3c2c1 | -44.9%
Cc1cc(/C=C2\SC(=S)N(C)C2=O)c(C)n1-c1cccc(O)c1 | -0.007%
CCCn1cnc2cc(NCc3cccc(OC)c3)ccc21 | -33.6%
Cc1cc(N)n(-c2ccc(Cl)cc2)n1 | 12.6%
Cc1ccccc1NC(=O)CN1C(=O)C2C3CC(C(Br)C3Br)C2C1=O (centres unmarked) | 11.2%
Cc1csc2c(N(C)CCO)ncnc12 | 17.1%
C/C(=N\NC(=O)c1ccc([N+](=O)[O-])cc1)c1c(O)cc(C)oc1=O | 20.5%
COC(=O)C1=C(C)NC(C)=C(C(=O)OC)C1c1ccc(OC(=O)c2oc3ccccc3c2C)c(OC)c1 | 12.1%
